# Assay results reported in the antibiotic and cytotoxicity screens of Wong et al. (2023).
# This is one part of the list.
# Test system: HSkMC (human skeletal muscle cells)
# Test: cytotoxicity call (relative viability < 0.9)
# Conditions: 10 µM
row,Structure (SMILES),cytotoxicity call
1,Cn1cnc(S(=O)(=O)N2C[C@@H](O)COC[C@H]3O[C@H](CC(=O)NCc4cc(F)cc(F)c4)CC[C@@H]32)c1,inactive
2,COCCn1cc2c(n1)[C@H](CNC(=O)CS(C)(=O)=O)OCC2,inactive
3,Cc1noc(C)c1NC(=O)Nc1ccc2c(c1)C(=O)N([C@@H](C)CO)C[C@H](C)[C@H](CN(C)CC1CCCCC1)OCCCC[C@H](C)O2,inactive
4,Cn1cc(-c2[nH]c3cc(NC(=O)[C@H](N)C4CCCCC4)cc4c3c2C=NNC4=O)cn1,active
5,COc1cccc(S(=O)(=O)N(C)C[C@@H]2Oc3ncc(-c4ccc(F)cc4)cc3C(=O)N([C@H](C)CO)C[C@@H]2C)c1,inactive
6,C[C@H](CO)N1C[C@H](C)[C@@H](CN(C)S(=O)(=O)c2cccs2)Oc2c(NS(=O)(=O)c3ccccc3)cccc2C1=O,inactive
7,NCC[C@@H]1CC[C@@H](NC(=O)C2CCC2)[C@H](CO)O1,inactive
8,C[C@H]1CCCCO[C@@H](CN(C)C(=O)Cc2ccccc2)[C@@H](C)CN([C@@H](C)CO)C(=O)c2cc(NS(=O)(=O)c3ccc(Cl)cc3)ccc2O1,inactive
9,Cc1ccc(S(=O)(=O)Nc2ccc3c(c2)C(=O)N([C@H](C)CO)C[C@@H](C)[C@H](CN(C)C(=O)Nc2cccc4ccccc24)OCCCC[C@H](C)O3)cc1,inactive
10,O=C(C[C@H]1CC[C@H]2[C@@H](COC[C@H](O)CN2C(=O)c2ccncc2)O1)NC1CCC1,inactive

# Test system: HepG2
# Test: cytotoxicity call (relative viability < 0.9)
# Conditions: 10 µM
row,Structure (SMILES),cytotoxicity call
1,C[C@@H]1CN([C@H](C)CO)C(=O)c2cc(NC(=O)Nc3ccc4c(c3)OCO4)ccc2O[C@@H](C)CCCCO[C@@H]1CN(C)Cc1ccc2c(c1)OCO2,active
2,COc1ccc(S(=O)(=O)N(C)C[C@@H]2OCCCC[C@H](C)Oc3ccc(NS(C)(=O)=O)cc3C(=O)N([C@H](C)CO)C[C@H]2C)cc1,inactive
3,C[C@@H]1CN([C@@H](C)CO)C(=O)Cc2cc(NC(=O)CCN3CCOCC3)ccc2O[C@@H]1CN(C)C(=O)Nc1ccccc1,inactive
4,COC(=O)[C@@H]1C(=O)NC[C@H]1c1cccnc1,inactive
5,Cl.Cl.O=C1c2c(O)ccc(O)c2C(=O)c2c(NCCNCCO)ccc(NCCNCCO)c21,active
6,O=C(C[C@H]1CC[C@H]2[C@@H](COC[C@@H](O)CN2C(=O)Nc2cccc(Cl)c2)O1)NCCCN1CCOCC1,inactive
7,CN1CCN(C(=O)C[C@H]2CC[C@@H]3[C@H](COc4ccc(NC(=O)C5CCOCC5)cc4C(=O)N3C)O2)CC1,inactive
8,COc1ccc(S(=O)(=O)Nc2ccc3c(c2)C(=O)N([C@@H](C)CO)C[C@H](C)[C@@H](CN(C)S(=O)(=O)c2ccccc2)O3)cc1,inactive
9,CS(=O)(=O)N1CC[C@@H]2OCCN(C(=O)c3cccnc3)[C@@H]2C1,inactive
10,COc1ccc(-c2cnc3c(c2)C(=O)N([C@H](C)CO)C[C@@H](C)[C@@H](CN(C)C(=O)Cc2ccncc2)O3)cc1,inactive
11,C[C@H](CO)N1C[C@H](C)[C@@H](CN(C)C(=O)C2CCCCC2)OCCCC[C@H](C)Oc2ccc(NC(=O)Nc3cccc4ccccc34)cc2C1=O,inactive
12,C[C@@H]1CCCCO[C@@H](CN(C)C(=O)c2ccccc2)[C@H](C)CN([C@H](C)CO)C(=O)c2cc(NC(=O)c3ccccc3)ccc2O1,inactive
13,CO[C@H](CN(C)S(=O)(=O)c1cccc(Cl)c1)[C@H](C)CN([C@@H](C)CO)S(=O)(=O)c1cccc(Cl)c1,inactive
14,O=C(C[C@H]1C=C[C@@H](NC(=O)c2ccc(F)cc2)[C@@H](CO)O1)NCc1ccncn1,inactive
15,Cc1ccc(S(=O)(=O)N[C@@H](Cc2ccccc2)C(=O)NCCCn2cc(-c3ccc(C(=O)NO)s3)nn2)cc1,inactive
16,C[C@H]1CCCCO[C@H](CN(C)Cc2ccc(C(F)(F)F)cc2)[C@@H](C)CN([C@@H](C)CO)C(=O)c2cc(NC(=O)Cc3ccccc3)ccc2O1,active
17,C[C@@H]1CCCCO[C@H](CN(C)CC2CC2)[C@@H](C)CN([C@H](C)CO)C(=O)c2cc(NC(=O)CCC(F)(F)F)ccc2O1,inactive
18,Nc1nc2ccc(OC(F)(F)F)cc2s1,inactive
19,CS(=O)(=O)CC(=O)N1C[C@@H]2CN(Cc3ccoc3)CCO[C@@H]2C1,inactive
20,COCC#Cc1ccc2c(c1)O[C@@H](CN(C)C(=O)C1CCCCC1)[C@@H](C)CN([C@@H](C)CO)S2(=O)=O,inactive
21,CC(=O)N1CCN(c2ccnc3c2c(=O)n(CC(=O)NC(C)(C)C)c(=O)n3C)CC1,inactive
